Data: PubChem BioAssay AID504706 (National Center for Advancing Translational Sciences (NCATS), 2011)
In all, about 320,000 compounds went through this assay and about 200 (0.062%) were called active. The shares of active, inactive and inconclusive entries below differ from those in the screen. Calls come from the whole dose curve; as a rule, active = well fitted activation curve with a large enough effect; inconclusive = small, poorly fitted or top-dose-only effect; inactive = no such curve, though single readings can be large or run the other way. Potencies of inconclusive entries are left out as doubtful fits.

Assay: qHTS assay for re-activators of p53 using a Luc reporter; note: nearly all actives have a fitted effect of over 45% in size
Conditions: H1299 p53-A138V BP100-luciferase reporter, luminescence, 24 h; series mostly up to 92.2 µM
Procedure, shortened: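 H1299 (p53-null), stable ts p53-A138V + BP100-Luc; 1000 cells/well, Opti-MEM/10% FBS; cpd 4 pt, 1:5; 24 h, 37 deg C, 5% CO2; detection reagent 10 min RT; luminescence.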
Potency is the fitted concentration of half-maximal effect; tags give direction and shape of the fitted curve.

SMILES	Potency
c1csc(-c2noc(COc3ccc4c(c3)CCCC4)n2)c1	inconclusive [activator, full curve, poor fit]
Cc1cccc(N=Nc2ccc(O)c3ncccc23)c1	inconclusive [activator, partial curve, poor fit]
Cc1ccc(SCCC(=O)N2CCC(C)CC2)cc1	inconclusive [activator, partial curve, poor fit]
Cc1nc(C)c(C(=O)C2=C(O)C(=O)N(CCN3CCOCC3)C2c2ccco2)s1 (centres undefined)	inconclusive [activator, single point]
O=C(Nc1ccc(F)cc1)C1CCCCC1	inactive
CC[C@]12c3[nH]c4cc(-c5ccco5)ccc4c3CCN1C(=O)[C@@H](CC(=O)NCCCn1ccnc1)C[C@@H]2C(=O)N1CCN(C(=O)C2CC2)CC1	inactive
Cc1nc2nc(-c3ccc(Cl)cc3)cn2nc1C	inconclusive [activator, partial curve, poor fit]
COC(=O)c1ccc(N=NN2CCCCCC2)cc1	inconclusive [activator, partial curve, poor fit]
COC(=O)c1cc2c(ccn2-c2ccc(F)cc2)n1CC(=O)C(C)(C)C	inactive
O=C(CC(SCc1ccco1)c1ccc(O)cc1)c1cccs1 (centres undefined)	inconclusive [activator, partial curve, poor fit]
COc1ccc(/C=N/Nc2ccccc2C(=O)O)cc1Cn1cc([N+](=O)[O-])cn1	inactive
COC(=O)c1cc(NC(=O)c2cc(C)oc2C)cc(C(=O)OC)c1	inactive
COc1ccc(/C=C/C(=O)N(C(C)C)C(C)C)cc1Br	inactive
COCCN(Cc1cn[nH]c1-c1ccc2cc(OC)ccc2c1)C(C)C	inconclusive [activator, partial curve, poor fit]
Cc1c(C(=O)Nc2cnccn2)oc2ccccc12	inconclusive [activator, full curve, poor fit]
Cc1ccc(C)c(NC(=O)CN(C)C(=O)CN2C(=O)C3CCCCC3C2=O)c1 (centres undefined)	inactive
CC(C)Cc1csc(NC(=O)c2ccc(F)cc2)c1C(=O)O	inconclusive [activator, partial curve, poor fit]
Cc1csc(NC(=O)CSc2ccc(-c3ccccn3)nn2)n1	inconclusive [activator, single point]
CC1CCCC(C)N1C(=O)CSc1nnc(C2CCCCC2)o1 (centres undefined)	inconclusive [activator, partial curve, poor fit]
Cc1nc2ccc(N=NC3=C(O)CCCC3=O)cc2s1	inactive
COc1ccc2[nH]c(C(=O)N/N=C/c3ccc(O)cc3O)cc2c1	inconclusive [activator, full curve, poor fit]
O=C(Nc1ccncc1)c1cncc(Br)c1	inactive
CCOC(=O)CC1Sc2ccccc2NC1=S (centres undefined)	inactive
COC(=O)c1ccc(OS(=O)(=O)N(C)C)cc1	inactive
Cc1nnc(NC(=O)c2oc3c(ccc4ccccc43)c2C)s1	inactive

SMILES	Potency
COc1ccccc1-c1noc(-c2ccco2)n1	inconclusive [activator, partial curve, poor fit]
Cc1ccc(-c2csc(-c3ccncc3)n2)cc1	inactive
CCN(CC)CCOc1ncnc2c1oc1ccccc12	inactive
Cc1ccc(O)c(-c2cc(-c3cccc(F)c3)n[nH]2)c1	inconclusive [activator, partial curve, poor fit]
Cc1cc(C)n2cc(CSc3nc4ccccc4s3)nc2n1	inconclusive [activator, full curve, poor fit]
COc1ccc(-n2cnnc2SCC(=O)c2cc(C)n(Cc3cccs3)c2C)cc1	inactive
Cc1cccc(Nc2nc(C)cc(C)n2)c1	inconclusive [activator, single point]
O=C(c1ccc(F)cc1)n1c(=S)nc2ccccn21	inconclusive [activator, full curve, poor fit]
COc1cc(/C=N/NC(=O)COc2cc(C)cc(C)c2)ccc1OS(=O)(=O)c1ccc(C)cc1	inactive
O=C(Nc1nnc(SCc2ccc(F)cc2)s1)c1ccc2c(c1)C(=O)N(c1ccccc1Cl)C2=O	inactive
O=C(NCc1ccc(F)cc1)c1cccc2c1C(=O)c1ccc(Cl)cc1S2(=O)=O	inconclusive [activator, partial curve, poor fit]
COCCNC(=S)N/N=C(\C)c1ccccc1O	inconclusive [activator, partial curve, poor fit]
COc1ccc(-n2cnc3cc(C(=O)N4CCOCC4)ccc32)cc1	inconclusive [activator, partial curve, poor fit]
COc1ccc(N(CC(=O)Nc2cccc(F)c2)S(=O)(=O)c2c(C)[nH]c(=O)[nH]c2=O)cc1	inactive
O=C(O)c1ccc(S(=O)(=O)/N=C2\C=C(Nc3ccccc3F)C(=O)c3ccccc32)cc1	inactive
O=C(NCc1ccco1)c1scc2c1OCCO2	inconclusive [activator, single point]
C=CCc1c(C)nc(-c2ccccc2)nc1N/N=C/c1ccncc1	inactive
Nn1c(-c2ccccn2)nnc1-c1ccccn1	inconclusive [activator, full curve, poor fit]
COc1ccc(CC(=O)Nc2oc(-c3ccccc3)c(-c3ccccc3)c2C#N)cc1OC	inactive
CCOc1ccc(NC(=O)CSc2nccn2C)cc1	active: 44.7 µM
CC(C)(C)c1cc(NC(=O)Nc2ccccc2)no1	inconclusive [activator, full curve, poor fit]
Fc1cccc(COc2ccccc2C(=S)N2CCCC2)c1	inactive
CCOC(=O)c1cnc(SCC(C)C)nc1N	inconclusive [activator, full curve, poor fit]
O=C(OCc1csc(-c2ccccc2)n1)C1=NN(c2ccccc2)C(=O)CC1	inconclusive [activator, partial curve, poor fit]
CC1(C)CC(n2c(NCCO)nc3c(c2=O)C2(CCCC2)Cc2ccccc2-3)CCO1 (centres undefined)	inactive

SMILES	Potency
COc1ccc(/C=C/C(=O)O/N=C(\N)c2ccccc2)cc1OC	inconclusive [activator, full curve, poor fit]
COc1cn(-c2ccccc2)nc1C(=O)Nc1ccc(C)cc1	inactive
COc1cccc(/C=N/NC(=O)CNC(=O)CCc2ccccc2)c1O	inactive
CC(=O)Oc1cccc(/C=c2\sc3nc(-c4ccco4)nn3c2=O)c1	inconclusive [activator, partial curve, poor fit]
CCOC(=O)c1sc(NC(=O)c2sccc2C)cc1C	inconclusive [activator, full curve, poor fit]
Cc1ccc(Sc2cnc3ccccc3n2)cc1	inconclusive [activator, partial curve, poor fit]
COc1cccc(/C=N/NC(=O)CSc2ccccc2C)c1O	inconclusive [activator, partial curve, poor fit]
Cc1onc(C(=O)Nc2ccc3c(c2)OCO3)c1[N+](=O)[O-]	inconclusive [activator, single point]
O=S(=O)(N1CCOCC1)n1nnc2ccccc21	inconclusive [activator, single point]
C=CCN(c1ccccc1C(=O)O)S(=O)(=O)c1ccc(C)cc1	inactive
CCOC(=O)N/N=C(C)/C=C/c1ccccc1	inconclusive [activator, partial curve, poor fit]
O=C(CSCc1cccc(F)c1)NCc1ccccc1	inconclusive [activator, partial curve, poor fit]
Cc1ccc(-c2nc3ccccc3s2)cc1NC(=S)NC(=O)c1ccccc1	inconclusive [activator, full curve, poor fit]
Cc1c(C(=O)N2CCc3ccccc32)oc2c1C(=O)CC(C)(C)C2	inconclusive [activator, full curve, poor fit]
O=C(NCCc1cccc(Cl)c1)c1cccnc1	inconclusive [activator, full curve, poor fit]
COc1ccc(C2CC(c3cccs3)=NN2C(=O)CSc2nc3ccccc3o2)cc1 (centres undefined)	inactive
COc1ccc(S(=O)(=O)NCC2CCC(C(=O)NCCCN3CCCC3=O)CC2)cc1 (centres undefined)	inactive
CC(C)CC[n+]1ccn(-c2nc3ccccc3nc2[N-]S(=O)(=O)c2ccccc2)c1	inactive
Cc1csc(NC(=O)CCn2c(=O)oc3ccccc32)n1	inconclusive [activator, single point]
COc1cccc(NC(=O)c2ccc(NC(=O)C3CC(=O)OC34CCCCC4)cc2)c1 (centres undefined)	inactive
O=C(/C=C/c1cccc(O)c1)c1ccc(N2CCOCC2)cc1	inconclusive [activator, partial curve, poor fit]
COCC(=O)Nc1cc(C(=O)NCCc2ccccc2)ccc1Cl	inconclusive [activator, partial curve, poor fit]
CC(=O)c1ccc(NC(=S)N2CCCCCC2)cc1	inactive
CCCCN(C(=S)Nc1ccc(F)cc1)c1c(N)n(CCC)c(=O)[nH]c1=O	inconclusive [activator, single point]
